# Test results as given in PubChem BioAssay AID759 (NMMLSC, 2007).
# Out of some 190,000 compounds screened, about 270 (0.14%) were called active. Inconclusive results, whose numbers are uncertain, are shown with a selection of clear calls.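 Rule for the calls: active = GTP binding activity at least 20% away from the 100% baseline, either lowered as inhibitor or raised as activator; inconclusive = flagged as likely green fluorescent, judged across all proteins in the well; inactive = the rest.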
# Biological target: GTPase HRas (Homo sapiens) (UniProt P01112)
# Experiment: HRas wt fluorescent GTP binding changes, either direction – biochemical, wildtype, bead-based flow cytometry, multiplex, primary screen (AID 759);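 note: 0% = unlabeled GTP competition control and 100% = no-compound control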
# Conditions: GST-Ras wt beads, Bodipy-FL-GTP binding, at 10 µM, actives lie on both sides
# Chain of UniProt P01112 (P01112 whole entry, looked up): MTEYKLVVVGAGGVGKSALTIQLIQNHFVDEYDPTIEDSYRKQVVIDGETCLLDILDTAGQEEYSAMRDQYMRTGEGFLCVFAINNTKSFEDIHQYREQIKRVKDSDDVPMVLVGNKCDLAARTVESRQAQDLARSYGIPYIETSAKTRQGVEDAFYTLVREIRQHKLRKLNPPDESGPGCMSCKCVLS
row,SMILES,GTP binding activity
1,CCC(C)NC(=O)CSc1nnc(-c2ccoc2C)n1CC1CCCO1 (stereo not given),inconclusive: 105%
2,CC[C@H](C)[C@H](NC(=O)c1ccc(Cl)cc1)C(=O)OCC(=O)c1ccc2c(c1)NC(=O)CO2,inconclusive: 98%
3,CC(=O)Nc1ccc(S(=O)(=O)NCC(=O)NCCc2ccc(S(N)(=O)=O)cc2)cc1,inconclusive: 94%
4,CCOC(=O)C1(Cc2cccc(OC)c2)CCN(Cc2cccc(OC)c2O)CC1,inactive: 101%
5,CC(=O)c1ccc(NC(=O)C(C)N2CCN(C/C=C/c3ccccc3)CC2)cc1 (stereo not given),inconclusive: 556%
6,Cc1[nH]c2ccccc2c1C(=O)C(=O)NCc1cccs1,inconclusive: 92%
7,CCOc1cc(NC(=S)NCCCN2CCOCC2)c(OCC)cc1NC(=O)C1CCCCC1,inactive: 103%
8,Cc1sc(NC(=S)Nc2ccc(F)cc2)c(C(N)=O)c1C,inconclusive: 94%
9,COC(=O)c1ccc(CSc2n[nH]c(=S)s2)o1,inconclusive: 103%
10,CSc1nnc2c(n1)OC(C)=Nc1ccccc1-2,inconclusive: 89%
11,Cc1nnc(SCC(=O)NC2CC2)n1CC1CCCO1 (stereo not given),inconclusive: 95%
12,COCCNC(=S)Nc1cc(OC)c(OC)cc1C#N,active: 67%
13,CCCc1nc(SCC(=O)N2CCC(Cc3ccccc3)CC2)c2c(=O)n(C)c(=O)n(C)c2n1,inactive: 96%
14,COc1ccc2nc(Nc3nc4ccc(NC(C)=O)cc4s3)sc2c1,inconclusive: 95%
15,Cc1noc(N)c1C1(O)C(=O)Nc2c(Cl)cc(Cl)cc21 (stereo not given),inactive: 94%
16,O=C(COc1ccc2oc(-c3ccccc3)cc(=O)c2c1)NCc1ccco1,inconclusive: 93%
17,COc1cccc(C(=O)Nc2ccc(-c3nc4ccccc4o3)c(O)c2)c1,inconclusive: 95%
18,CN=C1NN=C(c2cc(C)n(-c3ccc(Cl)cc3)c2C)CS1,inactive: 95%
19,CCc1ccc(C2C(C#N)=C(N)C(C#N)(C#N)C3=CCC(C(C)(C)C)CC32)cc1 (stereo not given),inactive: 100%
20,COc1ccc2c(c1)nc(SCC(=O)c1ccc(Br)s1)n2C,inactive: 102%
21,CC1=C(C)CC(C(=O)NNC(=O)c2csc3c2CCC(C(C)(C)C)C3)C(C(=O)O)C1 (stereo not given),inconclusive: 96%
22,CCN(CC)c1ccc2cc(-c3nc(-c4ccc(OC)cc4)cs3)c(=O)oc2c1,inconclusive: 374%
23,COC(=O)c1nnn(-c2nonc2N)c1CSc1nnc(N)s1,inactive: 97%
24,Cc1ccc2[nH]c(CCN(C)C)c(CC#N)c2c1,inconclusive: 105%
25,O=C(COC(=O)/C=C/c1cccs1)Nc1ccc2ccccc2c1,inactive: 80%
